Experimental data reported in the supplement of paper PMC7125110.
± gives the standard error. Variants at the background level are over-represented here.

B1: glmS ribozyme (parent)
chain: AUAAAAGCGCCAGAACUACAGAAAUGUAGUUGACGAGGAGGAGGUUUAUCGAAUUUUCGGCGGAUGCCUCCAAA

Variants of: B1
Assay: self-cleavage kobs at 2500 uM GlcN6P; higher = faster cleavage; RNA array
Conditions: with glucosamine-6-phosphate
Summary of the method: (§1)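 Using a hybridised Cy3 probe at 37 °C, barcoded ribozyme variants transcribed in situ by E. coli RNA polymerase on sequenced MiSeq chips were monitored across tiles imaged over ~14 h. The flow contained glucosamine-6-phosphate from 40 μM to 10 mM in HEPES/KCl/Mg(OAc)2 buffer. Signals were normalised to baseline and to non-cleaving reference variants before per-tile medians were fit to one- or two-exponential decays to yield kobs. Weighted Michaelis–Menten fits across concentrations gave kcat and KM.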

| Variant | self-cleavage kobs at 2500 uM GlcN6P |
| --- | --- |
| C34G G40C U47G | < 1e-05 s⁻¹ |
| A36G U55A U65G | < 1e-05 s⁻¹ |
| A12G A14C G44A U49C A53G G59A | < 1e-05 s⁻¹ |
| A33C A52C C70G | < 1e-05 s⁻¹ |
| A39U A42G A64U | 5.16e-05 ± 2.2e-05 s⁻¹ |
| G29C A42U U47A | < 1e-05 s⁻¹ |
| G32A G37A G44U U46C U49C | < 1e-05 s⁻¹ |
| A14U U46A U49C C61A | < 1e-05 s⁻¹ |
| A12U G51C U69G | < 1e-05 s⁻¹ |
| C11U C34G U54C | < 1e-05 s⁻¹ |
| U30A G41U C70G | 0.00387 ± 0.0011 s⁻¹ |
| A14C A36U U55A | < 1e-05 s⁻¹ |
| A33C C34G A48U | < 1e-05 s⁻¹ |
| G13U A48G U54A | < 1e-05 s⁻¹ |
| A33C U47C A64U | < 1e-05 s⁻¹ |
| A33C A48C C71U | < 1e-05 s⁻¹ |
| A14U U31A U57A C58U G59C | < 1e-05 s⁻¹ |
| U31G C34U C61G G63C | < 1e-05 s⁻¹ |
| C34A G43A A64G | < 1e-05 s⁻¹ |
| A39G C61G G66U | < 1e-05 s⁻¹ |
| A14U G63C U65C | < 1e-05 s⁻¹ |

| Variant | self-cleavage kobs at 2500 uM GlcN6P |
| --- | --- |
| G29U A33U G63A A64U | < 1e-05 s⁻¹ |
| A15C A48G A52U C67U | < 1e-05 s⁻¹ |
| A14G G32U U57G A64U | < 1e-05 s⁻¹ |
| A42C C58U C71G | < 1e-05 s⁻¹ |
| A39C U49C U57G G63U | < 1e-05 s⁻¹ |
| G37A G41U U45C A48C | < 1e-05 s⁻¹ |
| A12C G41C C50G | < 1e-05 s⁻¹ |
| A14G A15G A36C A53G | < 1e-05 s⁻¹ |
| C11G A15G A39C G40A | < 1e-05 s⁻¹ |
| C34U G35A G44C U54A U65G | < 1e-05 s⁻¹ |
| A36C G43C U49C | < 1e-05 s⁻¹ |
| A14G G32A G60U U65C | < 1e-05 s⁻¹ |
| G38A A52G U57A C68A | 7.01e-05 ± 1.7e-05 s⁻¹ |
| A39G G40C U57G | < 1e-05 s⁻¹ |
| G41C A42U G60C G62C | < 1e-05 s⁻¹ |
| G37U A42U U54G U57A C67A | < 1e-05 s⁻¹ |
| A14U G43U G62U | < 1e-05 s⁻¹ |
| G29U C34A G37U G38C C67U | < 1e-05 s⁻¹ |
| A12U U31A G60A C70A | < 1e-05 s⁻¹ |
| G32C A42G U57G G62A C71A | < 1e-05 s⁻¹ |
| A36U G37A G44U A48G C61A | < 1e-05 s⁻¹ |

| Variant | self-cleavage kobs at 2500 uM GlcN6P |
| --- | --- |
| G37A A39C G59C | < 1e-05 s⁻¹ |
| A15U U46A U56C U57C | < 1e-05 s⁻¹ |
| G41A C58U G63U | < 1e-05 s⁻¹ |
| A14U G37C A42C | < 1e-05 s⁻¹ |
| A15U G37A A39C G59C | < 1e-05 s⁻¹ |
| C11U C34A U47A C50A G51U | < 1e-05 s⁻¹ |
| A12C G44C U65C | < 1e-05 s⁻¹ |
| C16U G51C C58A | < 1e-05 s⁻¹ |
| A12U C34U C71U | < 1e-05 s⁻¹ |
| A36U U45G U46G C68G | < 1e-05 s⁻¹ |
| G13U C16G A33U C34G U54A C58G | < 1e-05 s⁻¹ |
| A15G G37C U57G C67U | < 1e-05 s⁻¹ |
| U30C C34G G44C U57G C70U | < 1e-05 s⁻¹ |
| G35U U49A | < 1e-05 s⁻¹ |
| C16U G41A G62U | < 1e-05 s⁻¹ |
| C34U G35C G51A | < 1e-05 s⁻¹ |
| G29A G32C G43C U57G C68U | < 1e-05 s⁻¹ |
| G41C U54G G63U | < 1e-05 s⁻¹ |
| A12C U31C G43U | < 1e-05 s⁻¹ |
| A15C C61A G62U C71G | < 1e-05 s⁻¹ |
| C11U A48G A52U | < 1e-05 s⁻¹ |

| Variant | self-cleavage kobs at 2500 uM GlcN6P |
| --- | --- |
| A15G U30A G35U G59U | < 1e-05 s⁻¹ |
| G29U G37A G40U U57G | < 1e-05 s⁻¹ |
| A42G U54C G59U G60C C61G | < 1e-05 s⁻¹ |
| A42U A48G C61A | < 1e-05 s⁻¹ |
| C16G G29C U31G | 0.00447 ± 0.00064 s⁻¹ |
| G32U G35U C58A G62U C70U | < 1e-05 s⁻¹ |
| C11U C34G A52U | < 1e-05 s⁻¹ |
| G38C G60C G63A | < 1e-05 s⁻¹ |
| A33G A36U U47A | < 1e-05 s⁻¹ |
| A15U C16G U30A A33G G59A | < 1e-05 s⁻¹ |
| U31G G43C U55G C70U | < 1e-05 s⁻¹ |
| G32A A42C G62U | < 1e-05 s⁻¹ |
| G32U A42G U55C U56C C58G | 5.49e-05 ± 1.3e-05 s⁻¹ |
| G29C A36C G62A C71A | < 1e-05 s⁻¹ |
| C11U G51A C68A C71A | < 1e-05 s⁻¹ |
| G32A U49A U65G | < 1e-05 s⁻¹ |
| U30C G44U A64U C70G | < 1e-05 s⁻¹ |
| U31G G44U C70G | < 1e-05 s⁻¹ |

Variants of: B1
Assay: self-cleavage kobs at 10000 uM GlcN6P; higher = faster cleavage; RNA array
Conditions: with glucosamine-6-phosphate
Summary of the method: as §1

| Variant | self-cleavage kobs at 10000 uM GlcN6P |
| --- | --- |
| A33C A52C C70G | < 1e-05 s⁻¹ |
| A36C G43C U49C | < 1e-05 s⁻¹ |
| A15U U46A U56C U57C | < 1e-05 s⁻¹ |
| C11U C34G A52U | < 1e-05 s⁻¹ |
| U31G G43C U55G C70U | < 1e-05 s⁻¹ |
